Data on 1 substance can be found in publication PMC7035337.

The chains behind the UniProt entries cited, without tags or fusion partners.
UniProt P08670: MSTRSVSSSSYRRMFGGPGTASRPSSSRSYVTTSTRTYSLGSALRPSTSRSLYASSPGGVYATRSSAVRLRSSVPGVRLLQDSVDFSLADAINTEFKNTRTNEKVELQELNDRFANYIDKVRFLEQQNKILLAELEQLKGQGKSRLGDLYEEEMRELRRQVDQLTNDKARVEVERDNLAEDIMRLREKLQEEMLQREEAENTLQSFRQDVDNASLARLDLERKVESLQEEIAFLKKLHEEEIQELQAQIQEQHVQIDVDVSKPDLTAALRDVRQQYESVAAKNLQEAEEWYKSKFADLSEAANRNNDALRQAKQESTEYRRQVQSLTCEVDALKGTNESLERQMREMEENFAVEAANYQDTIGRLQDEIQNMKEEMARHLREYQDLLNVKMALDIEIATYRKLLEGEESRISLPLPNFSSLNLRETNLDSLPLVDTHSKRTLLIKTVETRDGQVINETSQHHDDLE

These are yes or no findings as the source states them, for the method shown. Some results given as binding are weak or reduced against the parent protein; the word gives no strength.

Holding throughout (assay): NMR titration; 15N-HSQC peak intensities of 100 µM 15N-labelled linker after adding unlabelled vimentinFL (200 µM in Supplementary Figure 8); 20 mM Tris-Cl pH 7.0, 1 mM DTT, no salt; 298 K; both purified
The target in test [1] is T1, desmoplakin linker domain, wild-type (residues Q2454-N2565) (human).
T1 sequence: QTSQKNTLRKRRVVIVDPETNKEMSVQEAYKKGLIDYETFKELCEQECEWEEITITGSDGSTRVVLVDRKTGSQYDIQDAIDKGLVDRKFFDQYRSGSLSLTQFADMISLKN

Test [2] addresses T2, periplakin linker domain, wild-type (residues K1646-K1756) (human).
T2 sequence: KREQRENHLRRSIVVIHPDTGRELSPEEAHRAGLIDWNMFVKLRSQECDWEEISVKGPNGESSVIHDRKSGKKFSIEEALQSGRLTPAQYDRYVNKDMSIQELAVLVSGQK

The target in test [3] is periplakin linker domain R1655E/R1656E (human) (UniProt O60437).

Take “full-length vimentin (vimentinFL, residues M1-E466) (from UniProt P08670 1-466)”: the binding entry is “binds” in test [1], “binds” in test [2] and “no binding (tested: 200 µM vimentinFL with 100 µM linker)” in test [3].
